Test results taken from the supplement of paper PMC3334620.
Whole data set: some 33,000 sequences, median “E-score (-0.5 to 0.5)” near -0.054, cut for the highest 2% near 0.35. This is one part of the list.

Biological target: T1, Stb5 (UniProt P38699)
T1 sequence: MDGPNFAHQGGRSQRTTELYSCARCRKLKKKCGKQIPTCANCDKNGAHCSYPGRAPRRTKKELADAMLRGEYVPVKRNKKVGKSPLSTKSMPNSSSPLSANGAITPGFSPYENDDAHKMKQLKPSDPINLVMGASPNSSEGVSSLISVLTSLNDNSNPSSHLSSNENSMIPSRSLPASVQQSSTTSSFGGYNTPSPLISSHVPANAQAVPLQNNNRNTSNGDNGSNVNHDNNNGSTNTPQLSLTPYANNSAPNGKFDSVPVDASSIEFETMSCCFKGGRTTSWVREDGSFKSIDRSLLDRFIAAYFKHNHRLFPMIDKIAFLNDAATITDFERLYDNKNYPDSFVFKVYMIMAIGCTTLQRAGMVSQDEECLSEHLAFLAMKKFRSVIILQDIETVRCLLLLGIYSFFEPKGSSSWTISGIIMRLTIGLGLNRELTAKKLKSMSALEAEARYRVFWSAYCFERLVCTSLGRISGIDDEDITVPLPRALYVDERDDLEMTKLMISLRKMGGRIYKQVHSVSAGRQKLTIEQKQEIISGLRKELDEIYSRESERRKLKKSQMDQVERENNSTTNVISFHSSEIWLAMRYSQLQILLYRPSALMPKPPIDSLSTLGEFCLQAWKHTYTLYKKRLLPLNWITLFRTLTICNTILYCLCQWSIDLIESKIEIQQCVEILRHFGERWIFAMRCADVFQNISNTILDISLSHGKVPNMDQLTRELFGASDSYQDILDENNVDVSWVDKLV
Experiment: PBM E-score (8-mer binding enrichment) (E-score (-0.5 to 0.5)); higher = stronger / more preferred TF binding; most listed sequences are background and not binding sites
Settings: protein concentration: 200 nM; construct: GST-full length
Summary of the method: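 Bound GST-tagged yeast transcription factors, applied at about 100-200 nM to double-stranded universal all-10-mer Agilent arrays, were detected with fluorescent anti-GST. Scans were normalised with masliner. A modified Wilcoxon-Mann-Whitney statistic, the E-score, was assigned to each ungapped eight-base word pooled with its reverse complement by the Universal PBM Analysis Suite.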

| Sequence | PBM E-score |
| --- | --- |
| CTGGATTC | -0.208 |
| CAGCCCTG | -0.078 |
| ACTTCCTC | -0.108 |
| GCTCCCAC | -0.122 |
| AGCTGCCA | -0.17 |
| CAAACTAC | -0.158 |
| CGTTCCGC | 0.226 |
| CCAGATCG | 0.0559 |
| CCCACTTA | -0.176 |
| CGCAACAG | -0.0441 |
| ATTTTCAA | -0.041 |
| ACATAGAA | -0.0458 |
| TCTCGACA | -0.109 |
| CTGGTTTA | -0.0641 |
| CACCTAAC | -0.0891 |
| GCTTTCGA | -0.179 |
| AGTACACA | -0.129 |
| CCACTTCG | 0.109 |
| CAACTGTA | -0.182 |
| ATGTCAGG | -0.0876 |
| CCCGAGGA | 0.0178 |
| ATTGTTTC | -0.0126 |
| CGACGCAG | 0.0483 |
| TCCCGTAA | 0.0139 |
| AACTGCAC | -0.247 |

| Sequence | PBM E-score |
| --- | --- |
| AACAGCTG | -0.278 |
| GCTGAAGA | -0.238 |
| AGAGAAAG | -0.333 |
| CAGCTACC | -0.167 |
| ATTGCTCA | -0.143 |
| CAATCCGG | 0.167 |
| AGATTGTG | -0.0847 |
| ATTTGCTC | -0.0873 |
| ACGCGTCT | -0.089 |
| GACGTCAA | -0.231 |
| AACCCTAA | -0.0664 |
| AGCCCCTG | -0.157 |
| ATAGAAGG | -0.023 |
| GCAAGTGC | -0.191 |
| CTGCGCTC | -0.0984 |
| AGTGCCCG | 0.14 |
| AACGTAAA | -0.1 |
| ATAGGTCC | 0.341 |
| ATGATGTG | -0.197 |
| AGATTTTC | -0.175 |
| CGTCAGAC | -0.0468 |
| CACGGCAG | -0.0156 |
| GTCTTTTA | -0.0581 |
| CGTCCGAA | 0.191 |
| AACGGCGC | 0.222 |

| Sequence | PBM E-score |
| --- | --- |
| ACGGTCGA | -0.00303 |
| CGCATGCG | -0.025 |
| AACCGTTG | 0.00655 |
| CGTGGACA | 0.0613 |
| ACAGGGCC | 0.115 |
| CTACAGCC | -0.0412 |
| CTAGGAAC | -0.0904 |
| AAAACTGC | -0.0726 |
| CTGAATGA | -0.0871 |
| AAAGCCGT | 0.324 |
| GCACGGGC | 0.2 |
| ATCTTTTA | 0.034 |
| CTGAATCA | -0.177 |
| GCATGGAC | 0.0532 |
| CAGACCGG | 0.272 |
| CGAGACAC | -0.00135 |
| AGGCCAAC | -0.162 |
| GTTGTTTA | -0.145 |
| ATCTTGGA | -0.264 |
| ACTCTAGA | -0.231 |
| ACGAAAGG | 0.14 |
| CATGCCCA | -0.252 |
| CCCTAATC | -0.0512 |
| GCGGCCGC | 0.271 |
| ACACTCAT | -0.116 |

| Sequence | PBM E-score |
| --- | --- |
| ACGAAGTC | -0.168 |
| AGCGTGTG | -0.0578 |
| CAACGACG | 0.145 |
| ATAAACGA | 0.0369 |
| CACGAGAA | -0.259 |
| CCATCGGA | 0.232 |
| CTCGTGAA | -0.255 |
| GCGGTTAA | 0.185 |
| GACCTAGC | -0.0632 |
| GTGAACGA | -0.147 |
| GCTTTTAC | 0.265 |
| CCGGCACA | 0.211 |
| ATATAAAA | 0.156 |
| AGAGGCCG | 0.281 |
| ACTTATCT | -0.135 |
| ACGGTTTA | -0.18 |
| ATTGATGC | -0.0372 |
| CGATCGAG | -0.0275 |
| GCATAACA | -0.194 |
| ACGCTTAT | -0.177 |
| GACCAGGC | -0.237 |
| AGAGACAG | -0.273 |
| AGATTAGC | -0.0635 |
| GTGCAGAA | 0.12 |
| TAATTCCA | -0.0352 |

| Sequence | PBM E-score |
| --- | --- |
| ATTTGGAA | -0.109 |
| CTAGGATC | -0.0849 |
| GAGTCCTA | -0.317 |
| ATAGGGTA | -0.141 |
| CTTGCGAC | -0.12 |
| GCAGAGCA | -0.224 |
| AACTCCAC | 0.0324 |
| AAGGTCAA | -0.128 |
| CGGCCCCA | 0.237 |
| ATCGAGCC | 0.0311 |
| GCTTAACA | 0.146 |
| TGAAGGCA | -0.265 |
| CATGCATA | 0.0159 |
| TCGGTGCA | 0.271 |
| TAGTGGAA | 0.0242 |
| CTCACATA | -0.098 |
| CGGCGATC | 0.122 |
| CCGGCAGA | 0.216 |
| GCGCCGGA | 0.298 |
| AGCTGTGA | -0.266 |
| CTTTAGTA | -0.0773 |
| AGAATGAT | -0.254 |
| AAGTACTC | -0.104 |
| CAATAGTA | -0.0757 |
| GTTGTCCA | -0.28 |

| Sequence | PBM E-score |
| --- | --- |
| GTTCGTAA | -0.036 |
| AAATCCAG | -0.312 |
| CACTGCCA | -0.2 |
| AAGGTGTA | -0.0581 |
| ACAACTCC | 0.0809 |
| GCGACTAC | -0.0381 |
| ACTGGCTG | -0.0745 |
| CCATGCAA | -0.00387 |
| AAAGCATT | -0.193 |
| CGATCTAA | -0.087 |
| GGGGGACC | -0.086 |
| AACCCAGT | -0.043 |
| AGAAGTTC | -0.138 |
| CTGCTTCC | 0.0143 |
| CTATACGC | -0.0454 |
| CAACCTAG | -0.224 |
| AGCCTGGG | -0.0438 |
| AATGCTCC | 0.0571 |
| CAGTCCCA | -0.372 |
| GTCGAAAA | -0.0406 |
| ATAATGGC | 0.269 |
| ATCCGGGG | 0.275 |
| TGGCGACA | -0.191 |
| AATTAACA | -0.136 |
| TAAAACTA | -0.0104 |

| Sequence | PBM E-score |
| --- | --- |
| TCAGTGCA | -0.163 |
| AAAGGTTC | -0.132 |
| CACAACAG | -0.148 |
| CTTGGTCC | 0.0225 |
| AGAATACG | 0.0115 |
| AAGGGAAG | -0.196 |
| CAGCAGGA | -0.194 |
| AACCGGGA | 0.125 |
| GAACACAC | -0.0424 |
| CAATGGTC | 0.105 |
| CAAATCCG | 0.102 |
| ATCAACTG | -0.0648 |
| ACAGCCTA | -0.279 |
| GCCGTTAA | 0.237 |
| AAGAGGTC | -0.15 |
| CTTTGCAC | -0.0129 |
| ACATAGCG | 0.0971 |
| GCATCCTA | -0.0379 |
| CAGGAGAC | -0.138 |
| CCCCTATC | -0.146 |
| GAAGAGCC | 0.129 |
| AGTCCGTA | 0.284 |
